In PubChem BioAssay AID493208 (National Center for Advancing Translational Sciences (NCATS), 2011):
About 340 (0.77%) of roughly 44,000 compounds were called active. Roughly 5% stayed inconclusive and do not appear here. The call rests on the fitted dose curve; in most records, active means well fitted inhibition curve with a large enough effect; inconclusive means small, poorly fitted or top-dose-only effect; inactive means flat fitted curve, though single readings scatter. The list shows a part of the results.

Assay: Acumen qHTS Assay for Inhibitors of the mTORC1 Signaling Pathway in MEF (Tsc2-/-, p53-/-) Cells: Sytravon;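 further: plate controls were DMSO for no effect and rapamycin for full effect; nearly all actives have a fitted effect of over 50% in size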
Conditions: phospho-rpS6 immunofluorescence/PI, 24 h; series mostly up to 38.3 µM; activity change, negative = inhibition: at the top concentration
Method in brief: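 Read-out: phospho-S6 Alexa-488 intensity over PI intensity per well, scored as % active cells using thresholds from rapamycin (7.5 nM) and DMSO controls. Tsc2-/-, p53-/- MEFs exposed to compound for 24 h; PI cell count recorded as viability.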

| Structure (SMILES) | activity change, negative = inhibition |
| --- | --- |
| O=C(NCc1ccccc1)c1ccc(CSc2nc3cccnc3n2Cc2cccc(F)c2)cc1 | inactive: -2.77% |
| CCCCn1nc(NC(=O)c2cccc(Cl)c2)c2cc3ccccc3nc21 | inactive: 0.556% |
| Cc1ccccc1NS(=O)(=O)c1ccc2[nH]cc(C(=O)N3CCCCC3)c(=O)c2c1 | inactive: 1.29% |
| COc1ccc(C)cc1-n1nnc(-c2nc(-c3ccccc3Cl)no2)c1N | inactive: -18.6% |
| Cc1ccccc1CN1C(=O)c2ccccc2Sc2ccc(C(=O)N3CCCC3)cc21 | inactive: -1.1% |
| CCCc1nc2ccccc2n2c(-c3ccccc3)c3c(=O)n(C)c(=O)n(C)c3c12 | inactive: -0.73% |
| CCN(C(=O)c1coc(=O)c2ccccc12)c1ccccc1C | inactive: 0% |
| CC(C)c1ccc(C(=O)Nc2cc(-c3ccccc3F)nn2-c2ccccc2)cc1 | inactive: 1.46% |
| Cc1ccc(-c2nnn3c2nc(NCCc2ccc(Cl)cc2)c2ccccc23)cc1 | inactive: 0.739% |
| CCCOc1ccc(CNC(=O)Cn2ncn3c(cc4sc(CC)cc43)c2=O)cc1 | inactive: -7.79% |
| Cc1c(C(=O)N2CCCCCC2)c(S(=O)(=O)NCc2ccc(Br)cc2)c(C)n1C | inactive: -3.18% |
| Cc1ccc(-c2nc3ccccn3c2Nc2ccccc2C)s1 | inactive: -4.85% |
| COC(=O)c1ccc(NC(=O)NCCn2nnc3cc(S(=O)(=O)N(C)C)ccc32)cc1 | inactive: 3.31% |
| CCOc1ccc(CNC(=O)c2ccc3nc(C(C)C)oc3c2)cc1 | inactive: 0% |
| COc1ccc(Nc2cc(C(=O)NC3CCC(C)CC3)c3ccccc3n2)cc1OC (centres undefined) | inactive: -7.39% |
| CCOc1ccc(C2Nc3c(C)cccc3-c3cc(C)nn32)cc1 (centres undefined) | inactive: -12.6% |
| CCOc1ccccc1C(=O)Nc1c(C(=O)Nc2ccc(F)cc2)oc2ccccc12 | inactive: -16.9% |
| Cn1c(=O)c(=O)n(C)c2cc(S(=O)(=O)CCC(=O)Nc3ccc(F)cc3)ccc21 | inactive: -3.27% |
| Cc1oc2ncnc(N3CCOCC3)c2c1C(=O)N(Cc1ccccc1)C(C)C | inactive: 3.77% |
| O=c1c(S(=O)(=O)c2ccccc2)cn(Cc2cccc(F)c2)c2cc(N3CCOCC3)c(F)cc12 | inactive: 0.486% |
| COc1ccc(OC(=O)c2nc(SCc3ccc(F)cc3)ncc2Cl)cc1 | inactive: 2.49% |
| Cc1ccc(C2=NN(CC(=O)NCCC(C)C)C(=O)CC2)cc1 | inactive: -14% |
| COc1cccc(-c2nnc(-c3ccccc3NC(=O)c3cccc(C(F)(F)F)c3)o2)c1 | inactive: 0.327% |
| CCOC(=O)c1cc(OC(=O)c2ccc(C)cc2)n(-c2ccccc2)n1 | inactive: -17.1% |
| CCOc1ccc(NC(=O)c2cnn3c2NC(c2cccc(OC)c2)=CC3c2ccccc2)cc1 (centres undefined) | inactive: -7.62% |

| Structure (SMILES) | activity change, negative = inhibition |
| --- | --- |
| COc1ccc(NC(=O)c2ccco2)cc1NC(=O)COc1ccccc1 | inactive: -5.88% |
| Cc1ccc(C(=O)Nc2nnc(S(=O)(=O)N3c4ccccc4CC3C)s2)cc1 (centres undefined) | inactive: 0.712% |
| Cn1c(=O)n(C)c2cc(N3CCOCC3)c(NC(=O)c3ccccc3Br)cc21 | inactive: -8.62% |
| COc1ccc(CNC(=O)CN2C(=O)CSc3ccc(S(=O)(=O)N4CCOCC4)cc32)c(OC)c1 | inactive: -3.99% |
| COc1cccc(CNC(=O)c2cc(S(=O)(=O)N3CCCCC3)cn2C)c1 | inactive: -11.7% |
| CC(=O)Nc1ccc(NC(=O)CSc2nc3ccccc3nc2N2CCC(C)CC2)cc1 | inactive: -1.4% |
| COc1ccc(NC(=O)C(Cc2ccccc2)n2cccc2)cc1OC (centres undefined) | inactive: -8.29% |
| COc1cc(-c2noc(CCC(=O)Nc3cc(C)ccc3C)n2)cc(OC)c1OC | inactive: 2.52% |
| Cc1ccccc1Cn1c2ccccc2c2cnn(CC(=O)NCCc3ccccc3)c(=O)c21 | inactive: -15.2% |
| COc1ccc(NC(=O)CCS(=O)(=O)c2ccc3nc(C)sc3c2)cc1Cl | inactive: -4.11% |
| Cc1ccc(-n2ncc(C(=O)NCCc3c[nH]c4ccccc34)c2C2CCN(C(=O)OC(C)(C)C)CC2)cc1C | inactive: -0.291% |
| Cc1ccc(OC(=O)CSc2nnc(-c3cccs3)o2)cc1 | inactive: 4.6% |
| CCn1c(=O)c2sccc2n2c(CCC(=O)N3CCN(c4ccc(C(C)=O)cc4)CC3)nnc12 | inactive: -11.1% |
| Cc1ccccc1C(=O)N(Cc1nc(-c2ccc(Cl)cc2)no1)C(C)C | inactive: 3.42% |
| CNC(=O)c1c(NC(=O)/C=C/c2ccccc2Cl)sc2c1CCC2 | inactive: 8.07% |
| O=C(Cn1c(-c2cccs2)cc2cc(Cl)ccc21)N1CCN(c2ccccc2F)CC1 | inactive: -14% |
| CC(NC(=O)CN(c1ccc(Cl)cc1Cl)S(=O)(=O)c1ccccc1)c1ccccc1 (centres undefined) | inactive: -1.51% |
| CCC(=O)Nc1ccc(CC)cc1-c1nc2ccccc2n(Cc2ccccc2)c1=O | inactive: 1.2% |
| COc1ccc(C(=O)c2oc3ccccc3c2NC(=O)COc2cccc(C)c2C)cc1 | inactive: -2.61% |
| CC1CCC(NC(=O)c2cc3c(Cl)nc4ccccc4c3s2)CC1 (centres undefined) | inactive: 0.491% |
| O=C(Cn1ccc2cc(S(=O)(=O)N3CCCCC3)ccc21)NCc1cccc(Cl)c1 | inactive: -6.14% |
| CCOc1ccccc1NC(=O)Cn1c(=O)n(Cc2ccccc2)c(=O)c2cccnc21 | inactive: -1.87% |
| COc1ccc(F)cc1S(=O)(=O)Nc1cccc(-c2ccc(N3CCCCCC3)nn2)c1 | inactive: 8.88% |
| CC(=O)Nc1ccccc1-c1nc2ccccc2n(Cc2cccc(Br)c2)c1=O | inactive: -6.44% |
